{
  "source": "paper PMC4336329",
  "about": "(PLoS ONE, 2015)",
  "note": "The whole screen tested about 310,000 compounds, of which about 14,000 (4.5%) showed an effect of 50% or more. The effect is printed as a negative number. This is one part of the list.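 Also: peak tail current of the secondary pulse compared with the same well before compound.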",
  "data": [
    {"biological_target": "human ether-à-go-go-related gene (hERG) potassium channel (human, UniProt Q12809)", "sequence (Q12809 whole entry, looked up)": "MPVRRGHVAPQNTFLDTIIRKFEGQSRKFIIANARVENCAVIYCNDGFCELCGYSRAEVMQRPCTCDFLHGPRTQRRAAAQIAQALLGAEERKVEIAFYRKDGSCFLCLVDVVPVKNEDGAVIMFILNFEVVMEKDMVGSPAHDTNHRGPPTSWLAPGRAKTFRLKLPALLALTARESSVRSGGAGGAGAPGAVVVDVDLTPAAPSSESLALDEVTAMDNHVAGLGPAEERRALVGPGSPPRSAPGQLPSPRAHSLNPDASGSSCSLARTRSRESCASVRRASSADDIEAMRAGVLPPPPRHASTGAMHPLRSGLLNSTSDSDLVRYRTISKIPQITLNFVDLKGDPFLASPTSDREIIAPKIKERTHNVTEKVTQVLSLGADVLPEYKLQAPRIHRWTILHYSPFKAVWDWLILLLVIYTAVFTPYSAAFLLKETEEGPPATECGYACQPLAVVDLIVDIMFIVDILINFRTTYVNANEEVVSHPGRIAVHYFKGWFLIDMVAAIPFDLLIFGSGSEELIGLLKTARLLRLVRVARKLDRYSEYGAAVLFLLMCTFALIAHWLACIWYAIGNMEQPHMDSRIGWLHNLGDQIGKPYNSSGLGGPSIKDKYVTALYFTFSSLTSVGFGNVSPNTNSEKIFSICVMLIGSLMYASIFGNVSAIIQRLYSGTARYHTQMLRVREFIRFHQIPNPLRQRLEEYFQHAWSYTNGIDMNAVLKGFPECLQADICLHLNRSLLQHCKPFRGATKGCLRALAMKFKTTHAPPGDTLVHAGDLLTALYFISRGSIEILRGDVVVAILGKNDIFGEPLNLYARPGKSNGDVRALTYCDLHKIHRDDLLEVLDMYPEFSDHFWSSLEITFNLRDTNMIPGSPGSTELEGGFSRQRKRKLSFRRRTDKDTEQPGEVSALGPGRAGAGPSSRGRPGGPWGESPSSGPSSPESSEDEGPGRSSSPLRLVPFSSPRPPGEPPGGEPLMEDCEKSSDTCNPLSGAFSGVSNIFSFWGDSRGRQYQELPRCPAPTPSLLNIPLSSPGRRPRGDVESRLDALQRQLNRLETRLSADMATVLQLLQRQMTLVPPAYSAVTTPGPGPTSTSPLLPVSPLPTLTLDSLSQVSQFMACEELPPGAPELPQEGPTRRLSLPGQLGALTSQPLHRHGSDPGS", "experiment": "primary screen, population patch clamp on CHO cells stably expressing hERG", "units": {"hERG current change (%, negative = inhibition) at 10uM": "%"}, "values": [
      {"smiles": "Cc1cc(O)cc(=O)n1Cc1ccccc1", "hERG current change (%, negative = inhibition) at 10uM": 12},
      {"smiles": "Cc1ncc(CN2CCN(C3CCCC3)C(CCO)C2)s1", "note": "(centres unmarked)", "hERG current change (%, negative = inhibition) at 10uM": 27.6},
      {"smiles": "COc1ccc(S(=O)(=O)NCCC(=O)N2CCCN(C)CC2)cc1", "hERG current change (%, negative = inhibition) at 10uM": -5.77},
      {"smiles": "COc1ccc(OC)c(S(=O)(=O)Nc2c(C)nn(C)c2C)c1", "hERG current change (%, negative = inhibition) at 10uM": 6.26},
      {"smiles": "Cn1c(CNC(=O)CNC(=O)c2cccc(F)c2)cc(=O)n(C)c1=O", "hERG current change (%, negative = inhibition) at 10uM": 18},
      {"smiles": "CCN(CC)CCCN(C(=O)c1cccs1)c1nc(-c2ccc(OC)cc2)cs1", "hERG current change (%, negative = inhibition) at 10uM": -83.3},
      {"smiles": "COc1ccc(-c2csc(N(CC3CCCO3)C(=O)c3ccco3)n2)cc1", "note": "(centres unmarked)", "hERG current change (%, negative = inhibition) at 10uM": -4.25},
      {"smiles": "COc1ccc(CN2C(=O)c3ccccc3C2=O)cc1C(=O)Nc1ccccc1N1CCOCC1", "hERG current change (%, negative = inhibition) at 10uM": -10.7},
      {"smiles": "COc1ccc(C2C(C(C)=O)=C(O)C(=O)N2c2nccs2)c(OC)c1", "note": "(centres unmarked)", "hERG current change (%, negative = inhibition) at 10uM": 18.7},
      {"smiles": "Cc1[nH]c(=O)[nH]c(=O)c1S(=O)(=O)N1CCCC(C(=O)N2CCN(c3ccccc3Cl)CC2)C1", "note": "(centres unmarked)", "hERG current change (%, negative = inhibition) at 10uM": 3.25},
      {"smiles": "Cc1cc(-c2ccccc2)oc(=O)c1NC(=O)c1ccccc1", "hERG current change (%, negative = inhibition) at 10uM": 3.11},
      {"smiles": "CCSc1nnc(NC(=O)C2CCN(S(=O)(=O)c3cc(C(F)(F)F)ccc3Cl)CC2)s1", "hERG current change (%, negative = inhibition) at 10uM": -4.37},
      {"smiles": "COCCNC(=O)Cn1cc(C(=O)c2cccs2)c2ccccc21", "hERG current change (%, negative = inhibition) at 10uM": 10.9},
      {"smiles": "CC(C)(C)c1cc(NC(=O)c2cc(F)c(F)c(F)c2F)no1", "hERG current change (%, negative = inhibition) at 10uM": 3.93},
      {"smiles": "Cn1c(NC(=O)c2ccc(Cl)cc2)cc(=O)n(C)c1=O", "hERG current change (%, negative = inhibition) at 10uM": 15.7},
      {"smiles": "CCC1(c2ccccc2)NC(=O)N(CC(=O)Nc2cc(C(F)(F)F)ccc2N2CCCC2)C1=O", "note": "(centres unmarked)", "hERG current change (%, negative = inhibition) at 10uM": 4.77},
      {"smiles": "Cc1cc(=O)oc(C)c1C(=O)Nc1ccc(Cl)cn1", "hERG current change (%, negative = inhibition) at 10uM": 12.7},
      {"smiles": "COc1cc(C(=O)OCC(=O)c2ccc(S(=O)(=O)N3CCCCC3)cc2)cc(OC)c1OC", "hERG current change (%, negative = inhibition) at 10uM": 1.54},
      {"smiles": "O=C(NCc1cccs1)Nc1cc(Cl)ccc1Cl", "hERG current change (%, negative = inhibition) at 10uM": 11.9},
      {"smiles": "CCOC(=O)C1C(=O)CC(C)(O)C(C(=O)OCC)C1c1cccc(OC)c1", "note": "(centres unmarked)", "hERG current change (%, negative = inhibition) at 10uM": -1.07},
      {"smiles": "Cc1onc(-c2ccccc2)c1-c1ccnn1S(=O)(=O)c1ccc(Cl)cc1", "hERG current change (%, negative = inhibition) at 10uM": 9.3},
      {"smiles": "COc1cccc(-c2c(C(=O)N/N=C(\\C)c3cccs3)nnn2-c2nonc2N)c1", "hERG current change (%, negative = inhibition) at 10uM": -5.54},
      {"smiles": "CC1=CC(C)(C)N=C(Nc2nc(C)c3cc(C)cc(C)c3n2)N1", "hERG current change (%, negative = inhibition) at 10uM": -63.5},
      {"smiles": "COC(=O)c1cc(S(=O)(=O)Nc2nn(C)c3cccc(F)c23)oc1C", "hERG current change (%, negative = inhibition) at 10uM": 23.3},
      {"smiles": "CCOC(=O)N1CCN(C(=O)CSc2ccc3nnc(-c4ccncc4)n3n2)CC1", "hERG current change (%, negative = inhibition) at 10uM": -11},
      {"smiles": "COC(=O)/C=C1\\SC(=Nc2ccc(Cl)c(Cl)c2)NC1=O", "hERG current change (%, negative = inhibition) at 10uM": 19.5},
      {"smiles": "COc1ccc(-c2cn3ccccc3n2)cc1[N+](=O)[O-]", "hERG current change (%, negative = inhibition) at 10uM": 6.33},
      {"smiles": "CC(C)c1ccc(NCCC(=O)c2ccc(Br)cc2)cc1", "hERG current change (%, negative = inhibition) at 10uM": 12.1},
      {"smiles": "COc1ccc(C(=O)COC(=O)c2cc(C)no2)c(OC)c1", "hERG current change (%, negative = inhibition) at 10uM": 12},
      {"smiles": "COc1ccc(NC(=O)CCCNC(=O)Cn2cnc3sc4c(c3c2=O)CCCC4)c(OC)c1", "hERG current change (%, negative = inhibition) at 10uM": 10.3},
      {"smiles": "CCOC(=O)N1CCN(c2c(NCCCN(CC)c3cccc(C)c3)c(=O)c2=O)CC1", "hERG current change (%, negative = inhibition) at 10uM": -32.1},
      {"smiles": "Cc1ccccc1/[N+]([O-])=C/c1ccncc1", "hERG current change (%, negative = inhibition) at 10uM": 15.4},
      {"smiles": "Clc1ccc(-c2noc3c2-c2nc(Cc4cccc5ccccc45)sc2CC3)cc1", "hERG current change (%, negative = inhibition) at 10uM": -1.72},
      {"smiles": "CCC(=O)NCCc1nc2ccccc2n1Cc1ccccc1", "hERG current change (%, negative = inhibition) at 10uM": -5.53},
      {"smiles": "CCOc1ccc(S(=O)(=O)N2CCCCC2)cc1NC(=O)C1COc2ccccc2O1", "note": "(centres unmarked)", "hERG current change (%, negative = inhibition) at 10uM": 15.3},
      {"smiles": "CC(C)N(C(=O)COC(=O)c1ccccc1C(=O)N1CCN(c2ccc(F)cc2)CC1)C(C)C", "hERG current change (%, negative = inhibition) at 10uM": -55.9},
      {"smiles": "Cc1cc(C(=O)NNC(=O)c2ccc(Cl)cc2)c2ccccc2n1", "hERG current change (%, negative = inhibition) at 10uM": 0.225},
      {"smiles": "CCCC(=O)Nc1nc2c(C)c(Cl)ccc2s1", "hERG current change (%, negative = inhibition) at 10uM": -0.25},
      {"smiles": "CCCCCCCCS(=O)C1CS(=O)(=O)CC1O", "note": "(centres unmarked)", "hERG current change (%, negative = inhibition) at 10uM": 5.75},
      {"smiles": "COc1ccc(OC)c(C(Nc2ccccc2)P(=O)(OC(C)C)OC(C)C)c1", "note": "(centres unmarked)", "hERG current change (%, negative = inhibition) at 10uM": -14.1},
      {"smiles": "CCOc1ccc(NC(=O)Cn2nnc(C(=O)NCc3ccc4c(c3)OCO4)c2N)cc1", "hERG current change (%, negative = inhibition) at 10uM": 11.7},
      {"smiles": "Cc1nn(CC(O)c2ccccc2)c(C)c1Br", "note": "(centres unmarked)", "hERG current change (%, negative = inhibition) at 10uM": 1.15},
      {"smiles": "Cc1ccc(NC(=O)C2C3C=CC4(O3)C2C(=O)N(CCCN2CCCCC2)C4C(=O)NC2CCCCC2)cc1Cl", "note": "(centres unmarked)", "hERG current change (%, negative = inhibition) at 10uM": 16.3},
      {"smiles": "Cc1nn(CC(=O)NNC(=S)Nc2ccccc2)c(C)c1[N+](=O)[O-]", "hERG current change (%, negative = inhibition) at 10uM": 10.8},
      {"smiles": "COc1ccccc1C(=O)C1CCCN(C(=O)c2cccc(Cn3cccn3)c2)C1", "note": "(centres unmarked)", "hERG current change (%, negative = inhibition) at 10uM": -13},
      {"smiles": "O=C(Cc1cccs1)NCc1ccc(F)cc1", "hERG current change (%, negative = inhibition) at 10uM": -1.5},
      {"smiles": "Cc1cccc(C)c1NC(=S)N(CCN(C)C)Cc1cccs1", "hERG current change (%, negative = inhibition) at 10uM": 0.189},
      {"smiles": "CCCCN(CC)CCCNC(=O)Cn1nc(Cc2cccnc2)c2ccccc2c1=O", "hERG current change (%, negative = inhibition) at 10uM": 7.94},
      {"smiles": "Cc1nc(Nc2ccccc2Cl)sc1C(=O)Nc1ccccc1", "hERG current change (%, negative = inhibition) at 10uM": 2.26},
      {"smiles": "O=C(O)c1ccc(N2C(=O)CSC2c2cccc([N+](=O)[O-])c2)cc1", "note": "(centres unmarked)", "hERG current change (%, negative = inhibition) at 10uM": 15.5},
      {"smiles": "CSc1nc(C)cc(OCC(=O)n2nc(C)cc2C)n1", "hERG current change (%, negative = inhibition) at 10uM": 7.05},
      {"smiles": "O=[N+]([O-])c1ccc(N/N=C/c2ccccc2)c(F)c1", "hERG current change (%, negative = inhibition) at 10uM": 4.79},
      {"smiles": "COc1ccc(-n2nnc3c(=O)n(CC(=O)Nc4cc(C)on4)cnc32)cc1OC", "hERG current change (%, negative = inhibition) at 10uM": 8.91},
      {"smiles": "O=C(COc1ccccc1Cl)N1CCN(c2ccc([N+](=O)[O-])c(N3CCCCC3)c2)CC1", "hERG current change (%, negative = inhibition) at 10uM": -16.2},
      {"smiles": "Cc1cc(C)c(NC(=S)N(C)C)c(C)c1", "hERG current change (%, negative = inhibition) at 10uM": 7.79},
      {"smiles": "O=C1COc2ccc(C(=O)C[n+]3cccc(O)c3)cc2N1.[Cl-]", "hERG current change (%, negative = inhibition) at 10uM": -3.25}
    ]}
  ]
}
